In PMC4336329 (PLoS ONE, 2015):
In all, about 310,000 compounds went through this assay and about 14,000 (4.5%) showed an effect of 50% or more. Effects have a minus sign here. The list shows a part of the results.

target: human ether-à-go-go-related gene (hERG) potassium channel (human, UniProt Q12809); test: primary screen, population patch clamp on CHO cells stably expressing hERG
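Further: peak tail current of the secondary pulse compared with the same well before compound.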

Chain of human ether-à-go-go-related gene (hERG) potassium channel (Q12809 whole entry, looked up): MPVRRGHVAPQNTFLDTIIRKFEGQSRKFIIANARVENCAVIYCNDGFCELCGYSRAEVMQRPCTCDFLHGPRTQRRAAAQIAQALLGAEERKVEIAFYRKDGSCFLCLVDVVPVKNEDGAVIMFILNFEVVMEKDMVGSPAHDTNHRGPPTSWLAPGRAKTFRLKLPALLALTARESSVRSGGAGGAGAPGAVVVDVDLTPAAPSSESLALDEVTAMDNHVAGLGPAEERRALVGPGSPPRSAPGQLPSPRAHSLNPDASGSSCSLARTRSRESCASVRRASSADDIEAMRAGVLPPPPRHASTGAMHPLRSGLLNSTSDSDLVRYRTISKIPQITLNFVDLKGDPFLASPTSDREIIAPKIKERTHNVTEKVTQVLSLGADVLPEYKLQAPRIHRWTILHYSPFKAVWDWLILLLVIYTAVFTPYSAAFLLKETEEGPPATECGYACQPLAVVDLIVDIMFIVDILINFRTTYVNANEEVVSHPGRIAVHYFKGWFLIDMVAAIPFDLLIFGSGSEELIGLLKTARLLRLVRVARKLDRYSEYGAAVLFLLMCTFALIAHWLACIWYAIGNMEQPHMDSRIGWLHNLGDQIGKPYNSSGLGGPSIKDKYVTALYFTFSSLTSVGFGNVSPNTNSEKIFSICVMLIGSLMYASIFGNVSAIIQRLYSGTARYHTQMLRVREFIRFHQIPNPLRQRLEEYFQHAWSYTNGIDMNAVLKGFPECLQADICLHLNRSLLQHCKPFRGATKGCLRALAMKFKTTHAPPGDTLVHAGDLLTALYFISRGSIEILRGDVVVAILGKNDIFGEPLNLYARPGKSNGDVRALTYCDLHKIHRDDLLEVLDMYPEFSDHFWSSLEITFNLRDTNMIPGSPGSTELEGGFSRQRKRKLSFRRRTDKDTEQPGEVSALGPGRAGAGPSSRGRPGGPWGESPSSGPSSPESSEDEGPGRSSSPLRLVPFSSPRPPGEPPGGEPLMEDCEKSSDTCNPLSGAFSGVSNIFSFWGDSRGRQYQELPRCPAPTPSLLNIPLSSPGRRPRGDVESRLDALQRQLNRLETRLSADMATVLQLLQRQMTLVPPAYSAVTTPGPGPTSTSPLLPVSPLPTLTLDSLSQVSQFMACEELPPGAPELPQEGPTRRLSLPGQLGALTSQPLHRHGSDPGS

| Structure (SMILES) | hERG current change (%, negative = inhibition) at 10uM |
| --- | --- |
| Cc1nnsc1C(=O)N/N=C/c1ccccc1 | 4.89% |
| CCN(CC)CCCNC(=S)N1CCN(c2nc3ccccc3n2CC)CC1 | -5.2% |
| COCc1cc(=O)n2[nH]c(-c3cccs3)cc2n1 | -2.66% |
| COc1ccc(C2=CC(c3cc(OC)c(OC)c(OC)c3)NC(=S)N2)cc1 (stereo not drawn) | 4.19% |
| Cc1sc(NC(=O)C2CCCCC2C(=O)O)c(C(N)=O)c1-c1ccc(C(C)(C)C)cc1 (stereo not drawn) | -3.15% |
| Cc1nn(-c2cccc(C(F)(F)F)c2)c(=O)c2noc(C)c12 | -2.01% |
| CC(=O)Nc1ccc(NC(=O)CSc2nnc(C3CC3)n2C)cc1 | 3.93% |
| O=C(Nc1ccccc1Cl)N1CCSc2ccccc21 | -14.4% |
| CC(=O)c1cccc(-n2nnnc2SCC(=O)NNC(=O)C2CCCCC2)c1 | 6.96% |
| COc1cccc(C2(O)CCN(C(=O)c3cccs3)CC2)c1 | -1.99% |
| Cn1nc(C(=O)NNc2c(F)c(F)cc(F)c2F)c2ccccc2c1=O | -6.18% |
| CCOc1c2ccc(C(=O)NCCCCc3ccccc3)cc2nn1C | -14.5% |
| O=C(NCCCN1CCOCC1)C1(c2ccccc2)CCOCC1 | 19.7% |
| O=C1CC(c2ccccc2)CC(O)=C1C=NCCN1CCN(C(=O)Cc2ccccc2)CC1 (stereo not drawn) | -53% |
| COc1ccc(NS(=O)(=O)c2ccc(C)c(C(=O)N(C)Cc3ccc(C)cc3)c2)cc1 | -30.2% |
| O=C(NCc1ccccc1)C(c1cccnc1)N(C(=O)c1ccccn1)c1ccccc1F (stereo not drawn) | 9.22% |
| Cc1noc(NS(=O)(=O)c2ccc(N/C=C\C(=O)c3cccc4ccccc34)cc2)c1C | -8.77% |
| O=C(CCCCCn1nnc2ccccc2c1=O)Nc1ccccc1Cl | 26.8% |
| Cc1cc2ccccc2n1CCNC(=O)COc1ccccc1 | -33.2% |
| CN(CC(=O)Nc1ccc(F)c(F)c1F)C1CCCCC1 | -52.5% |

| Structure (SMILES) | hERG current change (%, negative = inhibition) at 10uM |
| --- | --- |
| CCCn1c(NCc2ccccc2NS(=O)(=O)c2ccc(C)cc2)nc2ccccc21 | 6.84% |
| CCOC(=O)C1CCN(C(=O)Cn2nc(C)c3c(C)n(-c4ccccc4)nc3c2=O)CC1 | -13.9% |
| Cc1cc(N2CCC(C(=O)NCC3CC3)CC2)nc(-c2ccccc2)n1 | -73.1% |
| COCCOC(=O)c1c(NC(=O)CSc2cccc[n+]2[O-])sc(C(N)=O)c1C | 72% |
| O=C(NCc1ccco1)c1ccc(S(=O)(=O)c2cccc(S(=O)(=O)N3CCOCC3)c2)cc1 | 2.58% |
| COc1ccc(NC(=O)COc2cccc3c2OC(C)(C)C3)cc1OC | 6.43% |
| COc1cc(NC(=O)C2CCN(S(=O)(=O)c3cccnc3)CC2)cc(OC)c1OC | -17.1% |
| Cc1[nH]c2ccccc2c1C(=O)CSCC(=O)O | -1.3% |
| CCC(=O)c1ccc(N2CCN(C(=O)c3cccs3)CC2)c(F)c1 | -51.6% |
| CC(C)CC(=O)Nc1sc2c(c1C#N)CC(C)(C)NC2(C)C | -12.7% |
| Cc1ccc2[nH]c(=O)c(CN(Cc3ccc4c(c3)OCO4)Cc3nnnn3Cc3ccco3)cc2c1 | -5.61% |
| CCNc1sc(C(=O)c2cccs2)c(N)c1C#N | 9.68% |
| CCC(C)(C(=O)NC1CCCC1)N(Cc1cccs1)C(C)=O (stereo not drawn) | 9.95% |
| CC(=O)c1cn(CCCOc2ccccc2)c2ccccc12 | -6.84% |
| COc1ccc(CNC(=O)CC23CC4CC(CC(C4)C2)C3)cc1 | 20.4% |
| COc1ccc(N2CCN(CCC(N)=O)CC2)cc1 | 3.39% |
| CCOC(=O)Cc1ccc(NC(=O)c2ccc(C(C)(C)C)cc2)cc1 | -8.19% |
| COc1ccc(/C=N/Nc2ccc(C(F)(F)F)cc2[N+](=O)[O-])cc1 | 5.35% |
| Cc1ccc(OCc2cc(C(=O)NC(C)Cc3cnccn3)no2)cc1C (stereo not drawn) | 0.149% |
| Cc1nn(C)c(C)c1Sc1ccc(Br)cc1 | 7.38% |

| Structure (SMILES) | hERG current change (%, negative = inhibition) at 10uM |
| --- | --- |
| CCCC(=O)NCCCCNC(=O)CCC | 5.91% |
| O=C(NNC(=O)c1ccncc1)Nc1ccccc1 | 8.3% |
| Cc1ccc(NCc2ccccc2O)c(C)c1 | 24.8% |
| CCOC(=O)c1nn(-c2ccccc2C)c2nc(Nc3ccccc3)cc(=O)n12 | -29.9% |
| O=C(O)C(=O)O.OCc1ccccc1OCCCN1CCC(Cc2ccccc2)CC1 | -75% |
| COc1ccc(NC(=O)C(c2ccccn2)N(C(C)=O)c2ccc(C)cc2)cc1 (stereo not drawn) | 4.75% |
| COc1ccc(-c2[nH]ncc2C=O)cc1OC | -24.8% |
| O=C(Cn1c(NCCCCl)nc2ccccc21)c1ccccc1.[Cl-] | -31.1% |
| O=C(CC1C(=O)NCCN1CC1CCCCC1)NCCCN1CCOCC1 (stereo not drawn) | 25.9% |
| O=C(CCNC(=O)c1ccc(Cl)cc1)NCCC1=CCCCC1 | -7.49% |
| CCOc1cccc(C(=O)N2CCCCC2c2cccnc2)c1 (stereo not drawn) | -11.2% |
| C/C(N)=C(/C#N)C(=O)COC(=O)c1ccc(C#N)cc1 | -6.61% |
| CCCOc1cccc(C(=O)O)c1 | -3.68% |
| CN(C)/C=C/C(=O)c1ccccc1F | 0.616% |
| COc1nc2ccccc2nc1OC | 3.43% |
| N#C/C(=C/c1ccc2c(c1)OCO2)C(=O)NCCc1c[nH]c2ccccc12 | 8.49% |
| Nc1ccc2nc(-c3cccnc3)[nH]c2c1 | 4.72% |
| O=C(NCc1cccnc1)c1cccc(C(F)(F)F)c1 | 12.9% |
| CCCC(C)C1(CC)C(=O)NC(=Nc2ccc(OC)cc2)NC1=O (stereo not drawn) | 1.1% |
| Cc1cc(OCC(=O)NC2CCCCC2)ccc1Cl | 4.1% |
